Laboratory results: the RNAGym collection of RNA variant scans (doi:10.7554/elife.90254)
Read counts are not given, so values of variants with three or more changes are uncertain.

B1: LINE1-mini (parent)
chain: GGCAGAGCUCAACACAGCGUGGCAAAGUGGCUGUGGCUAGACUGCC

Variants of: B1
Assay: self-cleavage, relative activity (ratio to wild type); higher = more cleavage; in vitro, sequencing; the parent is a self-cleaving ribozyme

Variant	self-cleavage
GGCAGACCUCAACACAGCGUGGCAAAGUGACUUUGUGAAGACUGCC	0.01
GGCAGACCUCAACAAAGCGUAGCAAAGUGGCUGUGGCUCGACUGCC	0.15
GGCAGACCUCAACACAGCGUGGCAAAGCGGCUUUGGCUCGACUGCC	0.05
GGCAGACCUCAACACAGGGUGGCAAAGUGGCUCUGGCAAGACUGCC	0.01
GGCAGACCUCAACACAGCGUGGCAAAGUGGCUGUUGCUAGACUGAC	0.1
GGCAGACCUCAACAAUGCGUGGCAAAGUCGCUGUGGCUAGACUGCA	0.03
GGCAGACCUCAACACAGCGUGGCAAAGUGGCUGUAGCUAUACUGCC	0.03
GGCAGACCUCAACACAUCGUGGCAAAGUGGCUGUGGCUAGACUUGC	0.02
GGCAGACCUCAACACAGCGUGGCAAAGUGCCUGUGUCUAGACUGCC	0.08
GGCAGACCUAAACACAGCGCGGCAAAAUGGCUGUGGCUAGACUGCC	0.05
GGCAGACCUCAAGACAGCGGGGCAAAGUGGCCGUGGCUAGAAUGCC	0.02
GGCAGAUCUCAGCACAGCGUGGCAAAGUGGUUGUGGCUAGACCGCC	0
GGCAGACCUCAACACACCGUGGCAAAGUGGAUGUGGCUAGACUGCC	0.12
GGCAGACCUCAACACAGCGUUGCAAAGUGGCCGUGGCUAGACUGCC	0.06
GGCAGACCUCAACAAAGCGUGGCAAAGUGGCUGUGGCUAGAGUGCC	0.03
GGCAGACCUGAACACAGCGUGGCAAAGUGGCUCUGGCUAGACUGCC	0.02
GGCAGACCCGUACACAGCGUGGCAAAGUGACUGUGGUUAGACUGCC	0.01
GGCAGACCUCAAGAGAGCGUGGCAAAGUGGCUGUGCCUAGACUGCC	0.11
GGCAGACCUCAACACAGCUUGGCAAAGUGGCUGUAGUUAGACUGCC	0.03

Variant	self-cleavage
GGCAGACCUCAACACAGCGUGGCAAAGUGGAGGUGGCUAGAAUGUC	0.01
GGCAGACCUCAAUACAGCGCGGCAAAGUGGCUGCGGCUACACUGCA	0.02
GGCAGAUCUCGACACAGCGUGGCAAAGUGGCUAUGGCUAGACUGCC	0.01
GGCAGACCUCAACACAGCGUGGCAAAGUGUAUGUGGCUAGGCUGCC	0.03
GGCAGACCUCAACACAGCGUGGCAAAGUGGCAGUGGCUAGACUUCC	0.06
GGCAGACCUCAACAGAGCGUGGCAAAGUGGCUGUGGCUAGACUGCU	0.12
GGCAGACCUCAAUACAGCGUGGCUAAGUGCCGGUGGCUACACUACC	0.03
GGCAGACCACAACAAAGCUUGGCAAAGUGGAUGUGGCUAGCCUGCC	0
GGCAGACCUCAAUACAGCGUGGCAAGGUGGCUGUGGCUAGACUGCC	0
GGCAGACCUCAACACAGCGCGGCAAAGUGGCUGUGGAUAGACUGCC	0.01
GGCAGAUCUCCACACGGCAUGGCAGAUUGGCUGUGGCUUGACUGCC	0
GGCAGAUCUCACCUCAGCGUGGCAAAGUGGCUGUGGGUACGCUGCC	0.01
GGCAGACCUCAACACAGCGUGGCAAAGUGGCUGUGGCUACACUGCG	0.09
GGCAGACCUCAACACAGCUUGGCAAAGUGUCUGUGGCUAGACUGCC	0.12
GGCAGACCUCAACACAGCUUGGCAAAGUGGCUGUGGUUAGACUGCC	0.03
GGCAGACCUCAACACAGCCCGGCAAAUUGGCUGUGUCUAGACUGCC	0.02
GGCAGACCUCAACACAUCUUGGCAAAGUGUCUGUGGCCAAACUGCC	0.02
GGCAGACCUCAACACAGCGGGGCAAAGUGGCCGUGGCUUGACUGCC	0.09
GGCAGACCUCAACACAGCUUGGCAAAGUGGCGGUGGCUAGACUGCC	0.05

Variant	self-cleavage
GGCAGACCACAACACAGCGUGGCAUAGUGGCUGUGGCUAGACAACC	0.1
GGCAGACCUCAACACACCGAGGCAAAGGGGCUGUGGCUAGAUUGCC	0.01
GGCAGACCUCAACACAGCGUGGAAAAGGGGUUGUGGCUAGACUGCC	0.01
GGCAGACCGCAACACAGCGUGGCAAAGUGGCUGUGUCUAGACUGCC	0.06
GGCAGACCUCAACACAGCGUGGCAAAGUUGCUGUGGCUAGACUGCA	0.22
GGCAGACCUAAACACAGCGUGGCAAACUGUCUGCGGCUAGACUGCC	0.02
GGCAGACCUCAACACAACGUGGUAAAGUGGUUGUGGCUAGACUGCC	0.05
GGCAGACCUCAAUACAGCGUGGCAAAGAGGCUGUGGCUAGACUGAC	0.06
GGCAGACCUCAACACAGCGUGGCAAAGAUGCGGUGGCGAGACUGCC	0.02
GGCAGAUCUCUAAACAGCGUUGCAAACUGGCUGUGGCUAGACUGCC	0.01
GGCAGACCCCAACCCAGCGUGGCAAGGUGGCCGUGGCUAGACUGCC	0.07
GGCAGACCUCAACACAGGGUCGCAAAGUGGCUGGGACUGGACUGCC	0.12
GGCAGAUCUCCACACAGCGUGGCAAAGUGGCUGUGGGUAGACUGCC	0.01
GGCAGAUCUCACCACAGCGAGGCAAAGUAGCUGAGGCUAGACUGCC	0.01
GGCAGACCUGAACACAGCGCGGCAAAGUGGCUGUGGCUAGACUCCC	0.02
GGCAGACCUCAAGACAGCGUGGCAAAGUGGCUGUGGCUAGACAGCC	0.01
GGCAGACCUCAAGACAGCGUGGCAAAGUGGCUGUGGCCAGACUGGC	0.05
GGCAGACCUUAACACAGCGUGGCAAAGUGGCUGUGGCUAGACUGGC	0.04
